Reference: PubChem BioAssay (NCI)
Where “and” joins values, the source holds several entries; their conditions need not be identical. Identical values can stand only once.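 Growth conditions: 96-well plates. Treatment: test compound, 48 hours, 5 concentrations. Analysis: linear interpolation between bracketing concentrations; unreached endpoints set to highest concentration. GI50 marks 50% less growth. TGI: concentration producing complete growth inhibition.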

Tested on: NCI-H322M lung
Test: growth of human tumour cells (NCI), 48 h

SMILES	TGI	GI50
CC(=O)OCC1=C2C(OC(=O)C(C)C)CC3(COC(C)=O)OC3/C=C\C3(C)OC3C2OC1=O (centres undefined)	> 100 µM	
Cc1ccc(-n2nnc3c(sc4ccccc43)c2=O)cc1	> 100 µM	5850 nM
Cc1cc(NS(=O)(=O)c2ccc(NC(=O)COc3ccc(-c4cc5ccccc5[nH]4)cc3)cc2)no1	7.67 µM	2670 nM
Oc1ccc(NCc2cc(O)ccc2O)cc1	30.7 µM	
Nc1cccc2c1CN(C1CCC(=O)NC1=O)C2=O (centres undefined)	> 100 µM	> 100000 nM
Nc1cccc(/C=C/CN2CCN(CCOC(c3ccccc3)c3ccccc3)CC2)c1	27.8 µM	
COc1cccc2c1C(=O)c1c(O)c3c(c(O)c1C2=O)C[C@@](O)(C(C)=O)C[C@@H]3OC1CC(N(C)C)C(O)C(C)O1 (some centres undefined)		27.8 nM and < 11.2 nM
Nc1nc2c(c(=O)[nH]1)N=C(COP(=O)(O)OP(=O)(O)O)CN2	> 100 µM	
CC(=O)c1c2c(cc3c1CC1(C3)Cc3ccc4c(c3C1=O)CCC4)CCC2 (centres undefined)	> 100 µM	
CC(C)(C)C1CCP(=O)(c2ccccc2)CC1 (centres undefined)	> 100 µM	
O=CNNC(=O)CSc1nc2ccc(I)cc2c(=O)n1Cc1ccccc1	> 100 µM	
CSC1=N/C(=C\c2ccccc2)C(=O)N1CN1CCOCC1	> 100 µM	
O=C(Nc1ccc(Cl)cc1Cl)c1cc2nc3ccccc3c(=O)n2c2ccccc12	> 10 µM	
CCNC(=S)Nc1c(C#N)c2n(c1C(=O)OCC)CCCCC2	> 100 µM	
CCc1ccc(Oc2nccc(-c3c(-c4ccc(F)cc4)ncn3C3CCNCC3)n2)cc1	22.7 µM	12800 nM
O=S1c2ccccc2N=C(c2ccc3ccccc3c2)CC1c1ccccc1F (centres undefined)	> 100 µM	
O=C(O)CN(CC(=O)O)c1ccccc1	> 100 µM	
OC1=CN=C(C2CC2)Oc2ccccc21	> 100 µM	
O=[N+]([O-])c1ccc(/C=N/n2c(CCc3n[nH]c(=S)n3/N=C/c3ccc([N+](=O)[O-])o3)n[nH]c2=S)o1	> 100 µM	
COC(=O)CCN1CCN(CCO)CC1C (centres undefined)	> 10 µM	
Cc1ccc(-c2c3c(N)nc(-c4ccncc4)nc3nc3c2c(C)nn3-c2ccccc2)cc1	> 37.5 µM	> 37500 nM
CCOC(=O)CCC(NC(=O)c1ccc(OCc2ccc3nc(OC)c(OC)nc3c2)cc1)C(=O)OCC (centres undefined)	> 100 µM	
CC12OC3(C(O)C1O)C(C(=O)O[C@H]3CO[Si](C)(C)C(C)(C)C)C2S(=O)(=O)c1ccccc1 (some centres undefined)	> 100 µM	
CC(=O)NC1CCCN(O)C(=O)/C=C(/C)CCOC(=O)C(NC(C)=O)CCCN(O)C(=O)/C=C(/C)CCOC(=O)C(NC(C)=O)CCCN(O)C(=O)/C=C(/C)CCOC1=O.[Fe] (centres undefined)	> 100 µM	> 100000 nM
COC1=CCC2=C(CCN(C(=O)C3CC3)C2Cc2ccc(OC)c(O)c2)C1 (centres undefined)	> 100 µM	

SMILES	TGI	GI50
Nc1nccc2c1ncn2C1C=C(CO)C(O)C1O (centres undefined)	> 1000 µM	548000 nM
Cc1ccc(C2NC(=S)N3C(c4ccc(C)cc4)NC(=S)N23)cc1 (centres undefined)	24.9 µM	11300 nM
CC(=O)[C@H]1[C@@H](OCc2ccccc2)O[N+]([O-])=C(C)[C@@H]1c1ccccc1	> 100 µM	
O=S(=O)(CC(O)C(Cl)(Cl)Cl)NNc1ccccc1 (centres undefined)	> 100 µM	
Cc1ccc2nc3sc(=O)sc3nc2c1	28.3 µM	
CN(C(=O)C12C3C4C1C1C2C3C41C(=O)N(C)C(C)(C)C)C(C)(C)C (centres undefined)	> 50 µM	
O=S1CCN(Cc2ccc(-c3ccc4ncnc(Nc5ccc(OCc6ccccc6)c(F)c5)c4c3)o2)CC1	> 25 µM	983 nM
c1ccc2c(c1)ccc1nc3ccccn3c12	> 100 µM	
CC(C)(C)C(=O)CC(=O)C(F)(F)C(F)(F)C(F)(F)F.CC(C)(C)C(=O)CC(=O)C(F)(F)C(F)(F)C(F)(F)F.CC(C)(C)C(=O)CC(=O)C(F)(F)C(F)(F)C(F)(F)F.[Er]	> 100 µM	> 100000 nM
O=[N+]([O-])c1ccc(OP(=O)(O)OCC2OC(CP(=O)(O)O)C(O)C2O)cc1 (centres undefined)	> 100 µM	
Cc1ccc(S(=O)(=O)Nn2c(C)cc3ccc(S(=O)(=O)Nc4ccccc4[N+](=O)[O-])cc3c2=O)cc1	> 100 µM	
COc1cc(-c2ccccc2)c(OC)cc1CCl	> 100 µM	
O=C1/C(=C\c2ccc([N+](=O)[O-])cc2)CS(=O)(=O)C/C1=C/c1ccc([N+](=O)[O-])cc1	10.1 µM	806 nM
CCc1cccc(C(C)C)c1NC1=C([n+]2ccc(C)cc2)C(=O)c2ccccc2C1=O	13.6 µM	
Cc1ccn2c(-c3csc(Nc4cccc(O)c4)n3)c(C)nc2c1	20.9 µM	526 nM
NC(CCC(=O)NC(CSC(=O)N(O)c1ccc(Cl)cc1)C(=O)NCC(=O)O)C(=O)O (centres undefined)	> 0.5 µM	
CCOC(=O)C(Cc1ccc2c(c1)CCC2)Cc1ccc2c(c1)CCC2	> 100 µM	
CCSC1=C(C#N)C2(CCCCC2)C2=C(CC(C)(C)CC2=O)N1	61.6 µM	
CC1=C(S(=O)c2ccc(C)cc2)CCC2(CCCCO2)O1 (centres undefined)	> 100 µM	
CC(=O)C1=C(C)N(c2ccc(C)cc2)C2(O)C=CC(=O)C3=C(O)c4ccccc4C(=O)C312 (centres undefined)	45.5 µM	
c1ccc(CNCCCNCCCCNCCCNCc2ccccc2)cc1	31.7 µM	
COc1ccc(Oc2nc(Nc3ccc(N4CCOCC4)cc3)ncc2NC(=O)Nc2cc(OC)cc(OC)c2)cc1	9.11 µM	2170 nM
COC(=O)CSc1n[nH]c(-c2ccccc2)n1	> 100 µM	
CC(C)(C)c1cc(Oc2ccc(C#N)c(C#N)c2)cc(C(C)(C)C)c1	> 100 µM	
O=CN1CCN(C(=O)c2ccc(Cl)cc2)C1=S	29.3 µM	

SMILES	TGI	GI50
COc1ccc(-c2nnc(Nc3nc(O)c(C4=c5cc(OC(F)(F)F)ccc5=NC4=O)s3)o2)cc1	40.9 µM	11100 nM
O=C1CC(NCCCNC2CC(=O)c3c(Br)sc(Br)c32)c2c(Br)sc(Br)c21 (centres undefined)	14.4 µM	
Cc1cc(O)c2c(c1)C(=O)C=C(Br)C2=O	> 54.1 µM	
O=NN(CCCl)C(=O)Nc1ccc(Cl)c(Cl)c1	> 100 µM	
O=Cc1c[nH]c2ccc(-c3csc4ccccc34)cc12	> 100 µM	6270 nM
O=C(O)CC1C(=O)OC2C3COC(=O)c4cc(O)c(O)c(O)c4-c4c(cc(O)c(O)c4O)C(=O)OC2C(OC(=O)c2cc(O)c(O)c4c2C1C(O)C(=O)O4)C(OC(=O)c1cc(O)c(O)c(O)c1)O3 (centres undefined)	> 100 µM	
O=C(OCC(Cl)(Cl)Cl)N1CC[C@@H](C2CCCCC2)C1	> 100 µM	
CC(=O)Nc1cc(C(c2ccccc2)c2ccccc2)cc(C(c2ccccc2)c2ccccc2)c1C	> 100 µM	> 100000 nM
COc1ccccc1NC(=O)CC(=O)n1nc(-c2ccccc2)c(N=Nc2ccccc2[N+](=O)[O-])c1-c1ccccc1	> 100 µM	
CC(C)(C)OC(=O)N1CCCC1C(=O)NCCNc1ccc(NCCNC(=O)C2CCCN2C(=O)OC(C)(C)C)c2c1C(=O)c1ccccc1C2=O (centres undefined)	33 µM	
N=C1/C(=C/c2ccccc2)C(=O)N=C2SC=NN12	> 100 µM	
N#Cc1nc(-c2ccccc2O)oc1N	> 100 µM	
C[As](C)SCC(NC(=O)CCC(N)C(=O)O)C(=O)NCC(=O)O.Cl.c1ccncc1 (centres undefined)	4.43 µM	
O=c1c2cc(Br)ccc2[nH]c(=S)n1-c1ccccc1	> 100 µM	
Cc1ccccc1C(=O)NC(O)(C(F)(F)F)C(F)(F)F	> 100 µM	
CCOC(=O)c1c(C(F)(F)F)n([O-])c2ccc(Cl)cc2[n+]1=O	19.4 µM	4530 nM
CC(C)(C)C1CCC(CI)(N=[N+]=[N-])CC1 (centres undefined)	> 100 µM	
C=CCN1C(=O)/C(=C/c2ccccc2)N=C1SC1OC(COC(C)=O)C(OC(C)=O)C(OC(C)=O)C1OC(C)=O (centres undefined)	53 µM	
O=C1c2ccccc2C(=O)c2c(NCCNCCO)ccc(NCCNCCO)c21	6.84 µM and 6.26 µM and 6.93 µM	1890 nM and 1520 nM and 2150 nM
CC1=C(C(=O)Nc2cccc(C(F)(F)F)c2)C(c2ccccc2F)C(C(=O)Nc2cccc(C(F)(F)F)c2)=C(C)N1	25 µM	
Nc1nc(Cl)cc(NCC2(CO)CC(c3ccccc3)C2)n1 (centres undefined)	> 100 µM	
Cc1cc2oc(=O)c(Cl)c(Cl)c2c(C)c1Cl	31.4 µM	
Cc1ccc(S(=O)(=O)N/N=C2/C3C(CC2(C)C)C2(C)CCCC3(C)C2O)cc1 (centres undefined)	44 µM	
C=CC(Br)(CBr)CCC(Br)C(C)(C)Br (centres undefined)	26.9 µM	
NC(Cn1ccc(=O)c(O)c1)C(=O)O (centres undefined)	> 100 µM	

SMILES	TGI	GI50
CC1(C)CC(=O)C(CC2C(=O)c3ccccc3C2=O)C(=O)C1C(=O)C(=O)Nc1cccc2ccc(O)cc12 (centres undefined)	> 100 µM	
CC[C@@]1(O)C(=O)OCc2c1cc1n(c2=O)Cc2cc3c(Cl)c4c(cc3nc2-1)OCO4	> 100 µM	14.3 nM and 84.3 nM
O=[N+]([O-])c1ccc(Oc2cccc(C(F)(F)F)c2)c([N+](=O)[O-])c1	23.7 µM	11100 nM
COc1ccc(/C=c2\sc3nnc(CCC(=O)Nc4cccc(C(F)(F)F)c4)n3c2=O)cc1	> 100 µM	
O=C1/C(=C/c2ccc3c(c2)OCO3)Sc2scc(-c3ccc(O)c(O)c3)[n+]21	29.1 µM	
Clc1cc2nnn(C3CCCCO3)c2cc1Cl (centres undefined)	> 100 µM	
COc1cc(-c2nccc3[nH]c(-c4cccc5[nH]ccc45)nc23)cc(OC)c1OC	19 µM	< 10 nM
O=C1C=Cc2c1csc2Br	> 100 µM	
COc1cccc(C(C#N)NC23CC4CC(CC(C4)C2)C3)c1 (centres undefined)	> 100 µM	
O=C1CSc2sc(=S)sc2S1	> 100 µM	
C[N+](C)(C)CC(=O)N/N=C/c1oc(-c2cccc([N+](=O)[O-])c2)c(-c2cccc([N+](=O)[O-])c2)c1[N+](=O)[O-]	> 100 µM	
COc1ccc(C(=O)/C=C/c2ccc(OCC#N)cc2)cc1OC	41 µM	
O=c1c(-c2ccc3c(c2)OCO3)coc2c(CO)c(O)ccc12	9.3 µM	3040 nM
N=c1oc2ccc([N+](=O)[O-])cc2cc1C(=O)Nc1ccccn1	> 100 µM	
O=C(O)/C(=C/c1ccccc1[N+](=O)[O-])c1cccs1	> 100 µM	
COc1ccc(C2=NNC(c3cc(Cc4ccc(O)c(C5CC(c6ccc(OC)cc6)=NN5)c4)ccc3O)C2)cc1 (centres undefined)	> 100 µM	21700 nM
O=C1c2cccc3cccc(c23)C(=O)N1CC#Cc1ccc2c3c(cccc13)C(=O)N(CCN1CCNCC1)C2=O	23.5 µM	10100 nM
CC[C@@]1(OC(=O)C(N)CCC(=O)O)C(=O)OCc2c1cc1n(c2=O)Cc2cc3ccccc3nc2-1 (some centres undefined)	6.56 µM	
CC(=O)n1cc(CC(C)O)c(=O)[nH]c1=O (centres undefined)	> 100 µM	
O=[N+]([O-])c1ccc(N/N=C/c2ccccc2O)nc1	> 100 µM	1960 nM
O=C(/C=C/c1cc(F)ccc1F)OCCc1ccccc1	> 100 µM	
Cc1ccc(C)c(NC(=O)/C(=N\N)C(c2cnc3ccc([N+](=O)[O-])cc3n2)[N+](=O)[O-])c1 (centres undefined)	> 100 µM	
Nc1ncnc2c1nc(N)n2C1OC(CO)C(O)C1O (centres undefined)	1.02 µM	230 nM
